Measurements published in PubChem BioAssay AID686979 (National Center for Advancing Translational Sciences (NCATS), 2013).
Where “and” joins values, the source holds several entries; their conditions need not be identical. Identical values can stand only once. Out of some 420,000 compounds screened, about 50,000 (12%) were called active. This list was built around the results that the source calls inconclusive (neither active nor inactive); the mix of calls is not that of the screen. Calls follow the shape of the dose curve; as a rule, active = well fitted inhibition curve with a large enough effect; inconclusive = small, poorly fitted or top-dose-only effect; inactive = flat fitted curve, though single readings scatter. A potency beside an inconclusive call is a rough fit, not a confirmed value. Some compounds were tested as several samples or in several runs, with calls that do not always agree.

experiment: qHTS for Inhibitors of human tyrosyl-DNA phosphodiesterase 1 (TDP1): qHTS in cells in presence of CPT; details: chicken DT40 Tdp1-/-;hTDP1 cells + 20 nM CPT, ATP luminescence, 48 h; series mostly up to 46.2 µM; also: nearly all actives have a fitted effect of over 55% in size
In short: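 Chicken DT40 Tdp1-/- cells stably complemented with human TDP1 were seeded at 400 cells/well in medium containing 20 nM camptothecin, exposed to pin-transferred compounds, and grown at 37 °C for at least 48 hr. Viability was read as ATP luminescence.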
Potency is read from the fitted curve at half-maximal effect; tags tell the direction and shape of the fitted curve.

Row | Structure (SMILES) | Potency
1 | CCC(=NC1CC1)c1c(O)n(-c2ccc(OC)cc2)c(=O)[nH]c1=O | inactive
2 | Cc1[nH]c2ccccc2c1C(=O)C(=O)N1CC2CC(C1)c1cccc(=O)n1C2 (stereo unspecified) | inconclusive: 23.1 µM [inhibitor, partial curve, poor fit]
3 | COc1cccc2cc(-c3cc(=O)oc4ccc(OC(=O)N(C)C)cc34)oc12 | inconclusive: 29.1 µM [inhibitor, single point]
4 | CCOC(=O)CC1c2ccccc2-n2nncc2CN1CC1CCCCC1 (stereo unspecified) | inconclusive: 23.1 µM [inhibitor, single point]
5 | COC(=O)C1=CN(c2ccc(C(C)(C)C)cc2)C(N)=C(C#N)C1c1cccc([N+](=O)[O-])c1 (stereo unspecified) | inconclusive: 29.1 µM [inhibitor, single point]
6 | COC(=O)C1=C(c2ccc(OC)c(OC)c2)C[C@@H]2CC[C@H]1N2C(=O)NC1Cc2ccccc2C1 | inconclusive: 32.6 µM [inhibitor, single point]
7 | O=C1NCN(c2ccccc2)C12CCN(C(c1cc3ccccc3o1)c1nnnn1Cc1ccccc1)CC2 (stereo unspecified) | inconclusive: 29.1 µM [inhibitor, single point]
8 | N#CC1=C(N)Oc2c(c(=O)oc3ccccc23)C1c1ccccc1OC(=O)c1cccs1 (stereo unspecified) | active: 18.4 µM
9 | CN1[C@@H](CC(=O)c2ccccc2)CCC[C@H]1C[C@H](O)c1ccccc1 | active: 23.7 µM
10 | Cc1ccc(-n2c(O)c(C=NCCCn3ccnc3)c(=O)[nH]c2=O)cc1 | inactive
11 | O=C(c1cc(C(=O)NCc2ccccc2)c(=O)n(Cc2ccccc2)c1)c1cc(Cl)ccc1O | active: 7.31 µM
12 | C1CC2NCCC3NCCC(N1)N32 (stereo unspecified) | inactive
13 | O=C(c1c[nH]cc1-c1ccccc1)c1cccc2ccccc12 | active: 18.4 µM
14 | CCC(=NCc1ccco1)c1c(O)n(C)c(=O)n(C)c1=O | inconclusive: 29.1 µM [inhibitor, single point]
15 | O=C(Cc1ccccc1)Oc1ccccc1N1C(=O)CCC1=O | inactive
16 | COc1ccc(/C=N/N=C(/N)N[N+](=O)[O-])c(OC)c1 | inconclusive: 18.4 µM [inhibitor, single point]
17 | O=C1NCN(c2ccccc2)C12CCN(C(c1ccnc3ccccc13)c1nnnn1-c1ccc3c(c1)OCCO3)CC2 (stereo unspecified) | inconclusive: 29.1 µM [inhibitor, single point]
18 | Cc1cccc(-c2nc(CN3C(=O)CN=C(c4ccccc4)c4ccccc43)c(C)o2)c1 | inconclusive: 23.1 µM [inhibitor, single point]
19 | CN(Cc1ccccc1)C(=C(Cl)Cl)/C(=C1/NCCN1Cc1ccc(Cl)nc1)[N+](=O)[O-] | inconclusive: 16.4 µM [inhibitor, single point]
20 | CCOc1ccc(CN(CCc2ccc3c(c2)OCO3)Cc2cccc(OC)c2)cc1 | inconclusive: 29.1 µM [inhibitor, single point]
21 | Cc1cccc(N(C)S(=O)(=O)c2cc(-c3cnc(C4CC4)o3)ccc2C)c1 | active: 16.4 µM
22 | CCOC(=O)[C@]12Cc3c(cc(OC)c(OC)c3OC)[C@H]1N(C(C)C)C(=O)c1ccccc12 | active: 23.1 µM

Row | Structure (SMILES) | Potency
23 | COC(C)C(O)(C(=O)OC1=CCN2CC[C@H](O)[C@H]12)C(C)C (stereo partly specified) | active: 10.6 µM
24 | COC(=O)C1=C(c2ccc(F)cc2OCc2ccccc2)C[C@@H]2CC[C@H]1N2C | active: 23.1 µM
25 | CC(C(=O)c1c[nH]c2ccccc12)N1CCSCC1 (stereo unspecified) | inactive
26 | CCOC(=O)c1ccc(CNCc2ccc(Br)cc2)cc1 | inconclusive: 23.1 µM [inhibitor, partial curve]
27 | CCOC(=O)c1c(C)n(Cc2ccccc2)c2ccc(OCC(O)Cn3nc(C)nc3C)cc12 (stereo unspecified) | inconclusive: 4.61 µM [inhibitor, partial curve]
28 | O=c1[nH]c(O)c(/C=C2/C=CC(c3cc(Cl)ccc3Cl)=N2)c(=O)[nH]1 | active: 5.8 µM
29 | COC(=O)C1=C(c2ccccc2)C[C@@H]2CC[C@H]1N2C(=O)N1CCCC1 | inconclusive: 29.1 µM [inhibitor, single point]
30 | COc1ccc(C)cc1NC(=O)N(Cc1ccc2c(c1)OCO2)C1CCN(Cc2ccccc2)CC1 | inconclusive: 9.2 µM [inhibitor, single point]
31 | CC(C)N1C(=S)SC(C)(C)C1n1oc(=O)n(-c2ccc(Cl)c(Cl)c2)c1=O (stereo unspecified) | inconclusive: 29.1 µM [inhibitor, single point]
32 | CN=C(SCC(=O)c1cccc(Cl)c1)c1c(O)n(C)c(=O)n(C)c1=O | inactive
33 | Cc1nn(Cc2ccccc2)c(Cl)c1C(=O)NC1CCCc2ccccc21 (stereo unspecified) | inconclusive: 20.6 µM [inhibitor, single point]
34 | O=c1c2ccccc2nc(-c2ccccc2)n1-c1ccncc1 | inconclusive: 4.11 µM [inhibitor, partial curve, poor fit]
35 | COC(=O)C1=C(c2cccc(OCc3ccccc3)c2)C[C@@H]2CC[C@H]1N2C(=O)NCCOc1ccc(OC)cc1 | active: 23.1 µM
36 | CCOc1ccc(N2C(=O)NC(=O)/C(=C\c3cc(OC)c(OC)cc3[N+](=O)[O-])C2=O)cc1 | inconclusive: 23.1 µM [inhibitor, single point]
37 | CC[N+](CC)(CC)CCOC(=O)C(C1CCCC1)C1CCCC1 | inconclusive: 23.7 µM [inhibitor, single point]
38 | O=c1c2ccccc2nc(/C=C/c2ccc(F)cc2)n1-c1ccccn1 | inconclusive: 23.1 µM [inhibitor, single point]
39 | CC(C)c1oc(=O)cc2c1[C@@H](O)[C@H]1OC(=O)[C@@]3(C)CC[C@@H](O)[C@@]2(C)C13 (stereo partly specified) | active: 5.8 µM
40 | CCN(CC)C(=O)c1ccc(NC(=O)c2sccc2-c2ccccc2)cc1 | inconclusive: 29.1 µM [inhibitor, single point]
41 | CCN1C[C@]2(COC)[C@H](O)C[C@H](OC)[C@]34C1C([C@H](OC)[C@H]23)[C@]1(OC(C)=O)C2[C@@H](OC(=O)c3ccccc3)C(O)(C[C@H]24)[C@@H](OC)[C@@H]1O | inactive
42 | Nc1nc(F)nc2c1ncn2[C@@H]1O[C@H](CO)[C@@H](O)[C@H]1O | active: 0.058 µM
43 | CN(C)c1ccc(/C=C/C=C2/C(=O)NC(=O)N(c3ccccc3)C2=O)cc1 | active: 2.91 µM
44 | CCC(=O)O[C@](Cc1ccccc1)(c1ccccc1)[C@H](C)CN(C)C | active: 42.8 µM

Row | Structure (SMILES) | Potency
45 | COc1ccc(-c2nc3ccccc3c(=O)n2-c2cccnc2)cc1 | inconclusive: 29.1 µM [inhibitor, single point]
46 | O=C(COc1ccc(Br)cc1)N1CCN(Cc2c[nH]c3ccccc23)CC1 | active: 1.3 µM
47 | Cc1ccc(Cl)cc1NC(=O)N(Cc1ccc2c(c1)OCO2)C1CCN(Cc2ccccc2)CC1 | inconclusive: 9.2 µM [inhibitor, single point]
48 | O=C(NC1CCCCC1)c1ccc(CSc2nc3ccncc3n2Cc2ccc(F)cc2)cc1 | inconclusive: 18.4 µM [inhibitor, single point]
49 | CCOP(=S)(OCC)Oc1ccc2c(C)c(Cl)c(=O)oc2c1 | inconclusive: 1.16 µM [inhibitor, full curve, poor fit]
50 | Cn1c(=O)c2c(nc(-c3ccc(N(CCCl)CCCl)cc3)n2C)n(C)c1=O | active: 14.6 µM
51 | COc1ccc(-n2c(O)c(C=Nc3c(C)n(C)n(-c4ccccc4)c3=O)c(=O)[nH]c2=O)cc1 | inactive
52 | CCOC(=O)[C@]12Cc3cc4c(cc3[C@H]1N(Cc1ccccc1)C(=O)c1ccccc12)OCO4 | inconclusive: 17.8 µM [inhibitor, single point] and inconclusive: 29.1 µM [inhibitor, single point]
53 | Cc1ccc2c(C)cccc2c1 | inactive
54 | CCC(=NCCN1CCOCC1)c1c(O)n(C2CCCCC2)c(=O)[nH]c1=O | inconclusive: 29.1 µM [inhibitor, single point]
55 | CN1CC2CN(Cc3ccccc3)S(=O)(=O)C2C1 (stereo unspecified) | inactive
56 | CCCCn1c(O)c(C(=O)/C=C/c2ccc3c(c2)OCO3)c(=O)[nH]c1=O | inconclusive: 29.1 µM [inhibitor, single point]
57 | CCOc1ccc(-c2nc3cc(NC(=O)COc4cccc(C)c4)ccc3o2)cc1 | active: 3.66 µM
58 | O=NN(CCCl)C(=O)NC1CCCCC1 | inconclusive: 0.0038 µM [inhibitor, full curve, poor fit]
59 | CCOc1ccc(-n2c(O)c(N=Nc3ccc([N+](=O)[O-])cc3)c(=O)[nH]c2=O)cc1 | inconclusive: 16.4 µM [inhibitor, partial curve]
60 | CCc1cc(OC)c(C[C@@H](C)N)cc1OC | inconclusive: 44.9 µM [inhibitor, single point]
61 | COc1ccc(-n2nnnc2C(c2cccc3ccccc23)N2CCC3(CC2)C(=O)NCN3c2ccccc2)cc1 (stereo unspecified) | inactive
62 | Cn1c(O)c(C=NCCCNC2CCCCC2)c(=O)n(C)c1=O | inactive
63 | Cc1cc(/C=C2\C(=O)NC(=O)N(c3ccc(Cl)cc3)C2=O)c(C)n1-c1sc2c(c1C#N)CCCC2 | inconclusive: 29.1 µM [inhibitor, single point]
64 | NC1CCCCC1N=Cc1c(O)n(CCc2ccc(F)cc2)c(=O)[nH]c1=O (stereo unspecified) | inconclusive: 18.4 µM [inhibitor, single point]
65 | Cn1c(=O)n(C)c2cc(CNCCc3ccc(F)cc3)ccc21 | active: 16.4 µM
66 | CC(=O)O[C@H]1C(=O)[C@@]2(C)C([C@H](OC(=O)c3ccccc3)[C@]3(O)C[C@H](O)C(C)=C1C3(C)C)[C@]1(OC(C)=O)CO[C@@H]1C[C@H]2O (stereo partly specified) | active: 7.31 µM
